Hit rate of the full screen: of about 420,000 compounds, about 50,000 (12%) were called active. The inconclusive results got no clear call from the source; some entries with a clear call stand among them for comparison. The call rests on the fitted dose curve; in most records, active means well fitted inhibition curve with a large enough effect; inconclusive means small, poorly fitted or top-dose-only effect; inactive means flat fitted curve, though single readings scatter. No potency is given beside an inconclusive call; the fits are too rough.
Experiment: qHTS for Inhibitors of human tyrosyl-DNA phosphodiesterase 1 (TDP1): qHTS in cells in presence of CPT; further: nearly all actives have a fitted effect of over 55% in size
Settings: chicken DT40 Tdp1-/-;hTDP1 cells + 20 nM CPT, ATP luminescence, 48 h; activity change, negative = growth inhibition: at 46.2 µM (top of the series)
In short: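 Cell growth measured by CellTiter-Glo luminescence after a minimum 48 h, 37 C compound exposure with 20 nM CPT in Tdp1-knockout DT40 cells stably expressing hTDP1, seeded 400/well; qHTS titration format.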
On the % scale 0 is the no-effect control and ±100 the full control effect; potency means the concentration at half of the fitted maximal effect; tags describe the fitted curve by direction and shape.

Row | Compound | Potency | activity change, negative = growth inhibition
1 | O=C(CSc1c(Cl)cccc1Cl)NC1CCCc2ccccc21 (configuration not stated) | inconclusive [inhibitor, partial curve, poor fit] | –
2 | Cc1ccc(NC(=O)c2cc(=O)[nH]c3ccc(S(=O)(=O)N4CCOCC4)cc23)nc1 | inactive | –
3 | O=C(NNC(=O)c1cc(-c2ccncc2)nc2ccccc12)c1cccc(Cl)c1 | inactive | –
4 | CC1(C(=O)NCCCNc2ncc(C(F)(F)F)cc2Cl)C=CCN1C(=O)c1ccccc1 (configuration not stated) | inconclusive [inhibitor, single point] | –
5 | CCN1CCN(CC2COc3ccccc3O2)CC1 (configuration not stated) | inactive | –
6 | CC(Oc1ccc(Br)cc1)C(=O)NNC(=O)CCN1CCN(c2ccccc2)CC1 (configuration not stated) | inconclusive [inhibitor, single point] | –
7 | Cc1cc(NC(=O)CSc2nc3cc(Cl)ccc3c(=O)n2Cc2ccco2)no1 | inconclusive [inhibitor, single point] | –
8 | COc1cc(CNn2nnnc2N)cc(Br)c1OCc1c(Cl)cccc1Cl | active: 18.4 µM | –
9 | CCOC(=O)c1sc(N2C(=O)C(O)=C(C(=O)c3ccc(C)o3)C2c2ccc(OC)c(OC)c2)nc1C (configuration not stated) | active: 23.1 µM | –
10 | CCCn1c(C(CO)Nc2nc(-c3cccc(Br)c3)cs2)nc2ccccc21 (configuration not stated) | inconclusive [inhibitor, single point] | –
11 | COc1ccc(Cl)cc1NC(=O)CCN1C(=O)c2ccccc2Sc2ncccc21 | inconclusive [inhibitor, single point] | –
12 | CCCCc1ccc(NC(=O)Cn2c(=O)c(N3CCCCC3)c(N)n(C)c2=O)cc1 | inconclusive [inhibitor, partial curve] | –
13 | COC(=O)c1ccc(Cn2cnc3c(Cl)ncnc32)cc1 | inconclusive [inhibitor, single point] | –
14 | CCOC(=O)N1CCN(C(=O)c2ccccc2-c2ccccc2)CC1 | active: 3.66 µM | –
15 | CCCCCCN1C=CC(=C2C(=O)c3ccccc3C2=O)C=C1 | inconclusive [inhibitor, single point] | –
16 | O=C(Nc1cccc(Cc2ccccc2)c1)Nc1ccc2nc([C@@H]3O[C@H](CO)[C@@H](O)[C@H](O)[C@H]3O)[nH]c2c1 | inconclusive [inhibitor, single point] | –
17 | O=C(CNc1ccc(Oc2ccccc2)cc1)N1CCOCC1 | inconclusive [inhibitor, single point] | –
18 | CCOc1ccc(OCC)c(NC(=O)CSCCc2ccccn2)c1 | – | inconclusive: -31.3% [inhibitor]
19 | N#Cc1c(N)[nH]c(C(=O)c2ccccc2)c1-c1ccc(Cl)cc1 | inactive | –
20 | Cc1cccc(-c2c(NC(=O)c3ccco3)oc3ccc(Cl)cc3c2=O)c1 | inconclusive [inhibitor, single point] | –
21 | CC(C)C(=O)N1c2nc(C(C)C)nn2C2(CCCCC2)[C@@H]2CCCC[C@@H]21 | active: 6.51 µM | –
22 | Cn1c(=O)c2[nH]c(CCCCc3nc4ccccc4[nH]3)nc2n(C)c1=O | inactive | –
23 | CC(=O)Nc1ccc(OCc2cn(CC(=O)c3ccc(O)cc3)nn2)cc1 | inactive | –
24 | COc1ccc(NC(=O)c2ccc3c(=O)n(CC4CCCO4)c(=S)[nH]c3c2)c(OC)c1 (configuration not stated) | inconclusive [inhibitor, single point] | –

Row | Compound | Potency | activity change, negative = growth inhibition
25 | C/C(=N\OCc1nc2ccccc2c(=O)n1/N=C/c1cc([N+](=O)[O-])ccc1O)c1ccccc1 | inactive | –
26 | COc1ccc(OC)c(Nc2ncc3c(n2)CCN(Cc2cc(OC)c(OC)c(OC)c2)C3)c1 | active: 5.8 µM | –
27 | C1CNCCOCCNCCN1 | inactive | –
28 | Cc1ccc(CNc2ccc(O)cc2)cc1 | inconclusive [inhibitor, single point] | –
29 | COc1ccc(CCN2CCCn3c2nc2c3c(=O)[nH]c(=O)n2C)cc1OC | active: 25.9 µM | –
30 | COc1ccc(C2CC(c3cccc(OC)c3)=NN2c2ccc(S(N)(=O)=O)cc2)cc1 (configuration not stated) | inconclusive [inhibitor, single point] | –
31 | O=C(/C=C/c1cccnc1)c1cc(F)ccc1O | inconclusive [inhibitor, single point] | –
32 | CS(=O)(=O)N1CCCCC1c1cc(C(=O)NCc2ccc(Cl)c(Cl)c2)no1 (configuration not stated) | inconclusive [inhibitor, single point] | –
33 | CC(C)(C)C1=Nn2c(nnc2-c2ccccc2F)SC1 | – | inconclusive: -35.4% [inhibitor]
34 | COC(=O)C(Cc1ccc(O)cc1)NC(=O)NC12CC3CC(CC(C3)C1)C2 (configuration not stated) | inactive | –
35 | COCCNC(=O)C1CCC(CNS(=O)(=O)c2c(C)cc(C)cc2C)CC1 (configuration not stated) | inactive | –
36 | Cc1cc(C)c2[nH]c(=O)c(CN(Cc3cccs3)C(=S)NCC3CCCO3)cc2c1 (configuration not stated) | inconclusive [inhibitor, single point] | –
37 | CCc1ccccc1Nc1ncnc2c1cnn2-c1ccc(Cl)cc1 | active: 16.4 µM | –
38 | OC(CNCCc1ccc(C(F)(F)F)cc1)COc1ccc2ccccc2c1 (configuration not stated) | inconclusive [inhibitor, partial curve, poor fit] | –
39 | CC(=O)N1c2ccc(S(=O)(=O)NCCC(=O)Nc3cccc(Cl)c3)cc2CC1C (configuration not stated) | inactive | –
40 | CC(=O)OC(C(=O)N1CCOCC1)c1c(F)cccc1F (configuration not stated) | inactive | –
41 | Cc1ccc(Nc2nc(C)cc(C)c2C(N)=O)c(C)c1 | inconclusive [inhibitor, partial curve] | –
42 | CCOC(=O)c1cnc2ccc(C(=O)OC)cc2c1Nc1ccc(N2CCOCC2)cc1 | active: 10.3 µM | –
43 | Cc1ccc2cccc(OCc3ccc(Br)cc3)c2n1 | inconclusive [inhibitor, single point] | –
44 | CN(C)CCCN(C(=O)c1ccco1)c1nc2ccc(Cl)cc2s1 | active: 18.4 µM | –
45 | Cc1nc(C)c(-c2csc(NCCc3ccccc3)n2)s1 | active: 14.6 µM | –
46 | Cc1cccc(N2CCN(C(=O)CN3C(=O)NC4(CCCCCC4)C3=O)CC2)c1C | inconclusive [inhibitor, single point] | –
47 | CCN(CC(=O)NCc1cccs1)C(=O)c1ccc(C)o1 | inactive | –
